# According to the supplement of paper PMC8728848:
# This is one part of the list.
# B1: MRCL (Homo sapiens), NP_872425.1 (protein)
# chain: ATKVHFPFHTCDLRIDGDCFMVSSEADTYYRARMKCQRKGGVLAQIKSQKVQDILAFYLGRLETTNEVTDSDFETRNFWIGLTYKTAKDSFRWATGEHQAFTSFAFGQPDNHGLVWLSAAMGFGNCVELQASAAFNWNNQRCKTRNRYICQFAQEHISRWGPGS
# Experiments:
# Test in all cases: glycan array binding signal (z-score within array); higher = stronger binding
# Details in all cases: glycan notation: IUPAC condensed, linker removed
# Fuc(a1-2)Gal = target: Fuc(a1-2)Gal
# Summary of the method: (§1)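 The binding signal is a Z-score computed within each array and averaged over linkers. Arrays of the same protein sequence at different concentrations or buffers were also averaged together. Data originate from 3228 arrays in the Consortium for Functional Glycomics database, kept only where the protein sequence was available.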
# Fuc(a1-2)Gal(b1-3)GalNAc = target: Fuc(a1-2)Gal(b1-3)GalNAc
# Summary of the method: as §1
# [1] = target: Fuc(a1-2)Gal(b1-3)GalNAc(b1-3)Gal
# Summary of the method: as §1
# [2] = target: Fuc(a1-2)Gal(b1-3)GalNAc(b1-3)Gal(a1-4)Gal(b1-4)Glc
# Summary of the method: as §1
# [3] = target: Fuc(a1-2)Gal(b1-3)GalNAc(b1-4)[Neu5Ac(a2-3)]Gal(b1-4)Glc
# Summary of the method: as §1
# Fuc(a1-2)Gal(b1-3)GlcNAc = target: Fuc(a1-2)Gal(b1-3)GlcNAc
# Summary of the method: as §1
# [4] = target: Fuc(a1-2)Gal(b1-3)GlcNAc(b1-2)Man(a1-3)[Fuc(a1-2)Gal(b1-3)GlcNAc(b1-2)Man(a1-6)]Man(b1-4)GlcNAc(b1-4)GlcNAc
# Summary of the method: as §1
# [5] = target: Fuc(a1-2)Gal(b1-3)GlcNAc(b1-3)Gal(b1-4)Glc
# Summary of the method: as §1
# [6] = target: Fuc(a1-2)Gal(b1-3)GlcNAc(b1-3)[Gal(b1-4)[Fuc(a1-3)]GlcNAc(b1-6)]Gal(b1-4)Glc
# Summary of the method: as §1
# [7] = target: Fuc(a1-2)Gal(b1-3)[Fuc(a1-4)]GlcNAc
# Summary of the method: as §1
# [8] = target: Fuc(a1-2)Gal(b1-3)[Fuc(a1-4)]GlcNAc(b1-2)Man(a1-3)[Fuc(a1-2)Gal(b1-3)[Fuc(a1-4)]GlcNAc(b1-2)Man(a1-6)]Man(b1-4)GlcNAc(b1-4)GlcNAc
# Summary of the method: as §1
# Fuc(a1-2)Gal(b1-4)Glc = target: Fuc(a1-2)Gal(b1-4)Glc
# Summary of the method: as §1
# Fuc(a1-2)Gal(b1-4)Glc6S = target: Fuc(a1-2)Gal(b1-4)Glc6S
# Summary of the method: as §1
# Fuc(a1-2)Gal(b1-4)GlcNAc = target: Fuc(a1-2)Gal(b1-4)GlcNAc
# Summary of the method: as §1
# [9] = target: Fuc(a1-2)Gal(b1-4)GlcNAc(b1-2)Man(a1-3)[Fuc(a1-2)Gal(b1-4)GlcNAc(b1-2)Man(a1-6)]Man(b1-4)GlcNAc(b1-4)GlcNAc
# Summary of the method: as §1
# [10] = target: Fuc(a1-2)Gal(b1-4)GlcNAc(b1-3)Gal(b1-4)GlcNAc
# Summary of the method: as §1
# [11] = target: Fuc(a1-2)Gal(b1-4)GlcNAc(b1-3)Gal(b1-4)GlcNAc(b1-3)Gal(b1-4)GlcNAc
# Summary of the method: as §1
# [12] = target: Fuc(a1-2)Gal(b1-4)GlcNAc6S
# Summary of the method: as §1
# [13] = target: Fuc(a1-2)Gal(b1-4)[Fuc(a1-3)]GlcNAc
# Summary of the method: as §1
# [14] = target: Fuc(a1-2)Gal(b1-4)[Fuc(a1-3)]GlcNAc(b1-2)Man(a1-3)[Fuc(a1-2)Gal(b1-4)[Fuc(a1-3)]GlcNAc(b1-2)Man(a1-6)]Man(b1-4)GlcNAc(b1-4)GlcNAc
# Summary of the method: as §1
# [15] = target: Fuc(a1-2)Gal(b1-4)[Fuc(a1-3)]GlcNAc(b1-3)Gal(b1-4)[Fuc(a1-3)]GlcNAc
# Summary of the method: as §1
# [16] = target: Fuc(a1-2)Gal(b1-4)[Fuc(a1-3)]GlcNAc(b1-3)Gal(b1-4)[Fuc(a1-3)]GlcNAc(b1-3)Gal(b1-4)[Fuc(a1-3)]GlcNAc
# Summary of the method: as §1
# Fuc(a1-2)Gal6S(b1-4)Glc = target: Fuc(a1-2)Gal6S(b1-4)Glc
# Summary of the method: as §1
# [17] = target: Fuc(a1-2)Gal6S(b1-4)Glc6S
# Summary of the method: as §1
# [18] = target: Fuc(a1-2)Gal6S(b1-4)GlcNAc
# Summary of the method: as §1
# Fuc(a1-2)[Gal(a1-3)]Gal = target: Fuc(a1-2)[Gal(a1-3)]Gal
# Summary of the method: as §1
# [19] = target: Fuc(a1-2)[Gal(a1-3)]Gal(b1-3)GlcNAc
# Summary of the method: as §1
# [20] = target: Fuc(a1-2)[Gal(a1-3)]Gal(b1-3)GlcNAc(b1-2)Man(a1-3)[Fuc(a1-2)[Gal(a1-3)]Gal(b1-3)GlcNAc(b1-2)Man(a1-6)]Man(b1-4)GlcNAc(b1-4)GlcNAc
# Summary of the method: as §1
# [21] = target: Fuc(a1-2)[Gal(a1-3)]Gal(b1-4)Glc
# Summary of the method: as §1
# [22] = target: Fuc(a1-2)[Gal(a1-3)]Gal(b1-4)GlcNAc
# Summary of the method: as §1
# [23] = target: Fuc(a1-2)[Gal(a1-3)]Gal(b1-4)GlcNAc(b1-2)Man(a1-3)[Fuc(a1-2)[Gal(a1-3)]Gal(b1-4)GlcNAc(b1-2)Man(a1-6)]Man(b1-4)GlcNAc(b1-4)GlcNAc
# Summary of the method: as §1
# [24] = target: Fuc(a1-2)[Gal(a1-3)]Gal(b1-4)[Fuc(a1-3)]GlcNAc
# Summary of the method: as §1
# [25] = target: Fuc(a1-2)[Gal(a1-4)]Gal(b1-4)GlcNAc
# Summary of the method: as §1
# [26] = target: Fuc(a1-2)[GalNAc(a1-3)]Gal
# Summary of the method: as §1
# [27] = target: Fuc(a1-2)[GalNAc(a1-3)]Gal(b1-3)GlcNAc
# Summary of the method: as §1
# [28] = target: Fuc(a1-2)[GalNAc(a1-3)]Gal(b1-3)GlcNAc(b1-2)Man(a1-3)[Fuc(a1-2)[GalNAc(a1-3)]Gal(b1-3)GlcNAc(b1-2)Man(a1-6)]Man(b1-4)GlcNAc(b1-4)GlcNAc
# Summary of the method: as §1
# [29] = target: Fuc(a1-2)[GalNAc(a1-3)]Gal(b1-4)Glc
# Summary of the method: as §1
# [30] = target: Fuc(a1-2)[GalNAc(a1-3)]Gal(b1-4)GlcNAc
# Summary of the method: as §1
# [31] = target: Fuc(a1-2)[GalNAc(a1-3)]Gal(b1-4)GlcNAc(b1-2)Man(a1-3)[GalNAc(a1-3)[Fuc(a1-2)]Gal(b1-4)GlcNAc(b1-2)Man(a1-6)]Man(b1-4)GlcNAc(b1-4)GlcNAc
# Summary of the method: as §1
# [32] = target: Fuc(a1-2)[GalNAc(a1-3)]Gal(b1-4)GlcNAc(b1-3)Gal(b1-4)GlcNAc
# Summary of the method: as §1
# [33] = target: Fuc(a1-2)[GalNAc(a1-3)]Gal(b1-4)GlcNAc(b1-3)Gal(b1-4)GlcNAc(b1-3)Gal(b1-4)GlcNAc
# Summary of the method: as §1
# [34] = target: Fuc(a1-2)[GalNAc(a1-3)]Gal(b1-4)[Fuc(a1-3)]GlcNAc
# Summary of the method: as §1
# [35] = target: Fuc(a1-2)[GalNAc(a1-4)]Gal(b1-4)GlcNAc
# Summary of the method: as §1
# [36] = target: Fuc(a1-2)[GalNAc(b1-3)]Gal
# Summary of the method: as §1
# Fuc(a1-3)GlcNAc = target: Fuc(a1-3)GlcNAc
# Summary of the method: as §1
binder,measurement,setting,value
B1,glycan array binding signal (z-score),Fuc(a1-2)Gal,0.097
same,glycan array binding signal (z-score),Fuc(a1-2)Gal(b1-3)GalNAc,0.001
same,glycan array binding signal (z-score),[1],-0.341
same,glycan array binding signal (z-score),[2],-0.424
same,glycan array binding signal (z-score),[3],0.114
same,glycan array binding signal (z-score),Fuc(a1-2)Gal(b1-3)GlcNAc,-0.522
same,glycan array binding signal (z-score),[4],3.42
same,glycan array binding signal (z-score),[5],-0.114
same,glycan array binding signal (z-score),[6],0.194
same,glycan array binding signal (z-score),[7],-0.199
same,glycan array binding signal (z-score),[8],0.034
same,glycan array binding signal (z-score),Fuc(a1-2)Gal(b1-4)Glc,0.42
same,glycan array binding signal (z-score),Fuc(a1-2)Gal(b1-4)Glc6S,1.22
same,glycan array binding signal (z-score),Fuc(a1-2)Gal(b1-4)GlcNAc,0.289
same,glycan array binding signal (z-score),[9],-0.629
same,glycan array binding signal (z-score),[10],-0.656
same,glycan array binding signal (z-score),[11],-0.461
same,glycan array binding signal (z-score),[12],-0.654
same,glycan array binding signal (z-score),[13],-0.195
same,glycan array binding signal (z-score),[14],0.44
same,glycan array binding signal (z-score),[15],-0.853
same,glycan array binding signal (z-score),[16],-0.093
same,glycan array binding signal (z-score),Fuc(a1-2)Gal6S(b1-4)Glc,0.193
same,glycan array binding signal (z-score),[17],0.108
same,glycan array binding signal (z-score),[18],1.38
same,glycan array binding signal (z-score),Fuc(a1-2)[Gal(a1-3)]Gal,-0.24
same,glycan array binding signal (z-score),[19],-0.549
same,glycan array binding signal (z-score),[20],0.26
same,glycan array binding signal (z-score),[21],2.33
same,glycan array binding signal (z-score),[22],-0.464
same,glycan array binding signal (z-score),[23],-0.272
same,glycan array binding signal (z-score),[24],-0.521
same,glycan array binding signal (z-score),[25],-0.456
same,glycan array binding signal (z-score),[26],-0.622
same,glycan array binding signal (z-score),[27],-0.508
same,glycan array binding signal (z-score),[28],-0.466
same,glycan array binding signal (z-score),[29],-0.524
same,glycan array binding signal (z-score),[30],-0.481
same,glycan array binding signal (z-score),[31],1.09
same,glycan array binding signal (z-score),[32],-0.633
same,glycan array binding signal (z-score),[33],1.51
same,glycan array binding signal (z-score),[34],-0.044
same,glycan array binding signal (z-score),[35],3.1
same,glycan array binding signal (z-score),[36],-0.682
same,glycan array binding signal (z-score),Fuc(a1-3)GlcNAc,-0.58
